# Measurements from PubChem BioAssay (NCATS).
# Where “and” joins values, the source holds several entries; their conditions need not be identical. Equal values may be shown once. The inconclusive results got no clear call from the source; some entries with a clear call stand among them for comparison. Where a call stands in place of a potency, no number is given. Where the call is inconclusive, the potency comes from a doubtful curve fit. Calls of active or inactive are those of the source. Calls come from the whole dose curve; as a rule, active = well fitted curve in the direction sought with a large enough effect; inconclusive = small, poorly fitted or top-dose-only effect, or another doubt; inactive = no such curve, though single readings can be large; an effect the other way counts as inactive or inconclusive.
# What was measured:
# [1] = qHTS of pediatric cancer cell lines to identify multiple opportunities for drug repurposing: Primary screen for Saos-2 cells (AID 1347097); details: Saos-2 viability, CellTiter-Glo ATP luminescence, 48 h; activity change, negative = cytotoxic: at 46 µM (top of the series) unless noted; note: nearly all actives have a fitted effect of over 40% in size
# Method in brief: (§1)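 ATP-based luminescence (CellTiter-Glo) quantifies viability after a 48-hour exposure. Compounds are dosed across 8 or 11 final concentrations; DMSO and 2.3 µM bortezomib serve as controls.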
# [2] = qHTS of pediatric cancer cell lines to identify multiple opportunities for drug repurposing: Primary screen for BT-12 cells (AID 1347101); note: nearly all actives have a fitted effect of over 25% in size
# Method in brief: (§2)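 Cells (500-1,000/well) rested 5 h, then received compounds for 48 h; metabolically active cells were measured by CellTiter-Glo luminescence. Final concentrations spanned up to 46 µM (MIPE, 11-point) or 0.59 nM-46 µM (NPC, 8-point) in primary screens, 11-point in follow-ups.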
# [3] = qHTS of pediatric cancer cell lines to identify multiple opportunities for drug repurposing: Primary screen for SK-N-SH cells (AID 1347098); details: SK-N-SH viability, CellTiter-Glo luminescence, 48 h; activity change, negative = cytotoxic: at 57 µM (top of the series) unless noted; note: nearly all actives have a fitted effect of over 65% in size;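 for activity change, negative = cytotoxic: DMSO served as neutral control and bortezomib at 2.3 µM as positive control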
# Method in brief: as §2
# [4] = qHTS of pediatric cancer cell lines to identify multiple opportunities for drug repurposing: Primary screen for LAN-5 cells (AID 1347100); details: LAN-5 neuroblastoma viability, CellTiter-Glo luminescence, 48 h; activity change, negative = cytotoxic: at 46 µM (top of the series) unless noted
# Method in brief: (§3)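 Cells (500-1,000/well) in growth media were settled 5 h at 37 degrees C, then given compounds for 48 h. Viability was read as CellTiter-Glo luminescence. Primary runs used MIPE at 11 points (0.78 nM-46 µM) and NPC at 8 points (0.59 nM-46 µM); follow-ups used 11 points.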
# [5] = qHTS of pediatric cancer cell lines to identify multiple opportunities for drug repurposing: Primary screen for NB1643 cells (AID 1347099); note: nearly all actives have a fitted effect of over 50% in size
# Method in brief: as §1
# [6] = qHTS of pediatric cancer cell lines to identify multiple opportunities for drug repurposing: Primary screen for Rh18 cells (AID 1347102); note: nearly all actives have a fitted effect of over 65% in size
# Method in brief: as §3
# Potency is the fitted concentration of half-maximal effect; tags give direction and shape of the fitted curve.
structure (smiles),measurement,setting,value
CCOP(=O)(NC(C)C)Oc1ccc(SC)c(C)c1 (stereo not drawn),Potency,[1],inactive
same,Potency,[2],"inconclusive: 28.2 µM [cytotoxic, partial curve]"
Clc1cccc(N2CCNCC2)c1,Potency,[1],inactive
same,Potency,[3],inactive
same,Potency,[4],inactive
CNCC(=O)c1ccc(O)c(O)c1,Potency,[1],inactive
same,Potency,[3],inactive
same,Potency,[5],inactive
C[C@H]1CNCCc2ccc(Cl)cc21,Potency,[1],inactive
same,Potency,[4],inactive
O=C(CBr)Nc1ccc(Cl)cc1C(=O)c1ccccc1F,Potency,[1],inactive
same,Potency,[3],"inconclusive: 17.2 µM [cytotoxic, single point]"
CC1(C)CC/C(=C/c2ccc(Cl)cc2)C1(O)Cn1cncn1 (stereo not drawn),Potency,[1],"inconclusive: 34 µM [cytotoxic, partial curve]"
same,Potency,[4],"inconclusive: 67.9 µM [cytotoxic, single point]"
N[C@@H](Cc1ccc(N(CCCl)CCCl)cc1)C(=O)O,Potency,[1],active: 26.6 µM and active: 16.6 µM
same,Potency,[2],"inconclusive: 24.6 µM [cytotoxic, single point] and inconclusive: 21.7 µM [cytotoxic, partial curve]"
same,Potency,[6],"inconclusive: 26.4 µM [cytotoxic, single point]"
COc1cc(CC(C)N)cc(OC)c1OC (stereo not drawn),Potency,[1],inactive
same,Potency,[6],inactive
Cc1ccc(S(=O)(=O)N[C@@H](CCCCN)C(=O)CCl)cc1,Potency,[1],"inconclusive: 21.1 µM [cytotoxic, partial curve]"
same,Potency,[5],inactive
same,Potency,[2],"inconclusive: 17.4 µM [cytotoxic, partial curve, poor fit]"
c1ccc(C2CC2)c(OCC2=NCCN2)c1,Potency,[1],"inconclusive: 21.1 µM [cytotoxic, single point]"
same,Potency,[3],inactive
same,Potency,[5],inactive
CCCCCCCCC(=O)NCc1ccc(O)c(OC)c1,Potency,[1],"inconclusive: 94.4 µM [cytotoxic, partial curve]"
same,Potency,[3],active: 0.0014 µM
same,Potency,[5],active: 0.001 µM
same,Potency,[4],active: 0.001 µM
CC(C)[N+](C)(CCC(C(N)=O)(c1ccccc1)c1ccccc1)C(C)C,Potency,[1],inactive
same,Potency,[5],"inconclusive: 33.5 µM [cytotoxic, single point]"
same,Potency,[4],inactive
COC[C@@H](NC(C)=O)C(=O)NCc1ccccc1,Potency,[1],inactive
same,Potency,[5],"inconclusive: 1.66 µM [cytotoxic, full curve]"
COC(=O)c1cncn1C(C)c1ccccc1 (stereo not drawn),Potency,[1],"inconclusive: 16.8 µM [cytotoxic, partial curve, poor fit]"
same,Potency,[2],inactive
CC(O)CN1CCN(CC(=O)[O-])CCN(CC(=O)[O-])CCN(CC(=O)[O-])CC1.[Gd+3] (stereo not drawn),Potency,[1],inactive
same,Potency,[2],inactive
COC1=CC(C)=C[C@@H](C)[C@@H](O)[C@@H](C)CC(C)=CC=C[C@H](OC)[C@H]([C@@H](C)[C@@H](O)[C@H](C)[C@@]2(O)C[C@@H](O)[C@H](C)[C@@H](C(C)C)O2)OC1=O,Potency,[1],active: 29.6 µM
same,Potency,[5],active: 0.0093 µM
same,Potency,[4],"inconclusive: 0.0023 µM [cytotoxic, full curve, poor fit]"
same,Potency,[2],active: 0.0049 µM
CN(C)[C@@H]1C(=O)C(C(N)=O)=C(O)[C@@]2(O)C(=O)C3=C(O)c4c(O)cccc4[C@@](C)(O)[C@H]3[C@H](O)[C@@H]12,Potency,[1],inactive
same,Potency,[3],"inconclusive: 38.3 µM [cytotoxic, single point]"
CC1=C2[C@H]3OC(=O)[C@@H](C)[C@@H]3CC[C@@]2(C)C=CC1=O,Potency,[1],"inconclusive: 42.2 µM [cytotoxic, partial curve, poor fit]"
same,Potency,[2],inactive
same,Potency,[6],inactive
CN1C(=O)COc2c(C(=O)NC3CN4CCC3CC4)cc(Cl)cc21 (stereo not drawn),Potency,[1],"inconclusive: 14.8 µM [cytotoxic, partial curve]"
same,Potency,[5],inactive
same,Potency,[2],inactive
C[C@]12CC[C@@H]3[C@@H](CCC4=CC(=O)CC[C@@H]43)[C@@H]1CC[C@@H]2OC(=O)CCc1ccccc1,Potency,[1],active: 18.7 µM
same,Potency,[5],"inconclusive: 26.4 µM [cytotoxic, single point]"
same,Potency,[4],"inconclusive: 33.2 µM [cytotoxic, single point]"
CCCCC(CC)COC(=O)c1ccccc1C(=O)OCC(CC)CCCC (stereo not drawn),Potency,[1],"inconclusive: 6.86 µM [cytotoxic, partial curve]"
same,Potency,[3],"inconclusive: 17.7 µM [cytotoxic, partial curve, poor fit]"
CCC1(c2ccccc2)CCC(=O)NC1=O (stereo not drawn),Potency,[1],"inconclusive: 15 µM [cytotoxic, single point]"
same,Potency,[2],inactive
COc1ccc2c(c1OC)C(=O)O[C@H]2[C@@H]1c2cc3c(cc2CCN1C)OCO3,Potency,[1],inactive
same,Potency,[6],inactive
O=C(N[C@@H]1N=C(c2ccccc2F)c2cccc3c2N(CC3)C1=O)c1cc2ccccc2[nH]1,Potency,[1],"inconclusive: 15 µM [cytotoxic, partial curve, poor fit]"
same,Potency,[3],"inconclusive: 0.0244 µM [cytotoxic, full curve, poor fit]"
same,Potency,[4],inactive
same,Potency,[2],inactive
same,Potency,[6],inactive
CC(=O)NC1CCSC1=O (stereo not drawn),Potency,[1],"inconclusive: 1.33 µM [cytotoxic, partial curve, poor fit]"
same,Potency,[3],inactive
same,Potency,[6],inactive
C[C@H](N)C(=O)c1ccccc1,Potency,[1],inactive
same,Potency,[4],inactive
CCN[C@H](C)Cc1cccc(C(F)(F)F)c1,Potency,[1],inactive
same,Potency,[3],"inconclusive: 44.4 µM [cytotoxic, single point]"
same,Potency,[5],inactive
C=CCOC(Cn1ccnc1)c1ccc(Cl)cc1Cl (stereo not drawn),Potency,[1],inactive
same,Potency,[3],inactive
same,Potency,[2],"inconclusive: 17.4 µM [cytotoxic, single point]"
CC(C)=CCOc1c2occc2cc2ccc(=O)oc12,Potency,[1],"inconclusive: 18.8 µM [cytotoxic, partial curve, poor fit]"
same,Potency,[2],"inconclusive: 17.4 µM [cytotoxic, partial curve, poor fit]"
Cc1nc2ccccc2c(=O)n1-c1ccccc1Cl,Potency,[1],"inconclusive: 75.4 µM [cytotoxic, single point]"
same,"activity change, negative = cytotoxic",[3],inconclusive: -32.8% [cytotoxic] [at 115 µM]
CC(C)(O)C=CC(=O)[C@](C)(O)[C@H]1[C@H](O)C[C@]2(C)[C@@H]3CC=C4[C@@H](C=C(O)C(=O)C4(C)C)[C@]3(C)C(=O)C[C@@]12C,Potency,[1],active: 0.105 µM
same,Potency,[5],active: 0.0372 µM
same,Potency,[6],active: 0.0526 µM
CC(C)(C)NCC(O)c1ccccc1Cl (stereo not drawn),Potency,[4],inactive
CCC1(CC)C(=O)C=CNC1=O,Potency,[2],inactive
CCC(COC(=O)c1cc(OC)c(OC)c(OC)c1)(c1ccccc1)N(C)C (stereo not drawn),Potency,[4],"inconclusive: 18.8 µM [cytotoxic, partial curve, poor fit]"
same,Potency,[2],"inconclusive: 13.8 µM [cytotoxic, partial curve]"
CNC(C)(C)Cc1ccccc1,Potency,[4],inactive
CN1CCN(C(=O)O[C@H]2c3nccnc3C(=O)N2c2ccc(Cl)cn2)CC1,Potency,[5],"inconclusive: 14.8 µM [cytotoxic, partial curve]"
same,Potency,[2],inactive
C=CC(=O)NCNC(=O)C=C,Potency,[2],inactive
CC(C)NCC(O)c1ccc(N)c(C#N)c1 (stereo not drawn),Potency,[2],inactive
Oc1ccc(Cl)cc1,Potency,[5],inactive
same,Potency,[2],inactive
CC(C)NCC(O)c1ccccc1Cl (stereo not drawn),Potency,[4],inactive
CCOC(=O)c1ncn2c1CN(C)C(=O)c1c(I)cccc1-2,Potency,[4],inactive
COC(=O)[C@@H](N)CCCN=C(N)N[N+](=O)[O-],Potency,[2],inactive
CC(C(=O)c1ccccc1)N(C)C (stereo not drawn),Potency,[6],inactive
OC(c1ccccc1)(c1ccccc1)C1CCNCC1,Potency,[2],inactive
same,Potency,[6],"inconclusive: 10.6 µM [cytotoxic, partial curve, poor fit]"
C[C@@H]1[C@@H](CC(C[C@H]2O[C@@H]3O[C@]4(C)CC[C@@H]5[C@H](C)CC[C@@H]([C@H]2C)[C@@]35OO4)C[S+](=O)([O-])c2ccc(COC(=O)N(C)C)cc2)O[C@@H]2O[C@]3(C)CC[C@H]4[C@H](C)CC[C@@H]1[C@@]24OO3 (stereo partly drawn),Potency,[5],active: 1.05 µM
same,Potency,[2],active: 0.344 µM
COc1ccc(C(CN(C)C)C2(O)CCCCC2)cc1 (stereo not drawn),Potency,[5],"inconclusive: 33.2 µM [cytotoxic, single point]"
same,Potency,[6],inactive
CCCCOC(=O)c1ccccc1C(=O)OCc1ccccc1,Potency,[6],inactive
CCOCCOC(C)=O,Potency,[5],inactive
same,Potency,[2],"inconclusive: 15.9 µM [cytotoxic, single point]"
COc1cccc([C@@]2(O)CCCC[C@@H]2CN(C)C)c1,Potency,[5],inactive
same,Potency,[2],inactive
CCOP(=S)(OCC)Oc1cc(C)nc(C(C)C)n1,Potency,[2],inactive
CC(Cc1ccccc1)NCCn1cnc2c1c(=O)n(C)c(=O)n2C (stereo not drawn),Potency,[6],inactive
Cc1ccc(-c2nc3ccc(C)cn3c2CC(=O)N(C)C)cc1,Potency,[5],inactive
same,Potency,[2],inactive
CS(=O)(=O)c1ccc(C(=O)C2C(=O)CCCC2=O)c([N+](=O)[O-])c1,Potency,[4],inactive
Oc1ccc2c3c1O[C@H]1[C@@H](O)C=C[C@H]4[C@@H](C2)NCC[C@@]341,Potency,[4],"inconclusive: 39.7 µM [cytotoxic, single point]"
same,Potency,[2],"inconclusive: 41.1 µM [cytotoxic, single point]"
Nc1nc(N)nc(NC2CC2)n1,Potency,[6],inactive
CN1C(=O)CN=C(c2ccccc2)c2cc(Cl)ccc21,Potency,[5],"inconclusive: 23.7 µM [cytotoxic, single point]"
same,Potency,[2],inactive
same,Potency,[6],"inconclusive: 33.5 µM [cytotoxic, single point]"
CCC1(c2ccccc2)C(=O)N(COC)C(=O)N(COC)C1=O,Potency,[2],inactive
CC(C)c1c(CN(C)C(C)Cc2ccccc2)n(C)n(-c2ccccc2)c1=O (stereo not drawn),Potency,[2],"inconclusive: 3.47 µM [cytotoxic, single point]"
Clc1cccc(SC2CCNCC2)n1,Potency,[6],inactive
CC(=O)C1CCOC1=O (stereo not drawn),Potency,[6],inactive
N[C@@H](Cc1ccc(Oc2cc(I)c(O)c(I)c2)c(I)c1)C(=O)O,Potency,[2],inactive
CCC1(CCC(C)C)C(=O)NC(=O)NC1=O,Potency,[5],inactive
same,Potency,[4],inactive
same,Potency,[6],inactive
COc1ccc(OC)c(CC(C)N)c1 (stereo not drawn),Potency,[2],inactive
